Reference: the supplement of paper PMC11417369
The list shows a part of the results.

Each sequence was assayed on PfHDP1 homeodomain (GST-tagged) (assay: gcPBM binding intensity (ln(normalized median fluorescence intensity)); higher = stronger DNA binding).
Outline: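 Each value is the highest Masliner-normalised natural-log median intensity across replicate spots of either orientation of a probe. The probes were primer-extended double-stranded 36-bp intergenic genomic sequences on an Agilent 4 × 180k array, alongside negative controls, exposed for 1 h to GST-tagged P. falciparum DNA-binding domains expressed in E. coli. Bound protein was picked up with Alexa488 anti-GST antibody and scanned at 488 nm.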

Row | Sequence | gcPBM binding intensity (ln)
1 | TCATTATATTATTCTTGTACTTATATCCTTTTTTGA [XGTACX_site5320] | 6.61
2 | TAAAAGTTCACCTGTACACACATATATATCTGTACA [CACACA_site5019] | 6.79
3 | TTTTCATTCTTTTCCTTTGATTTACAATAGTATATT [GTGCAC_negctrl_site687] | 6.87
4 | GATCTTTCACATATATATATAAAGGATATTATGGTA [CACACA_negctrl_site522] | 6.36
5 | AGTAGTCTGGAGAAAAGTACACAGTATCTGGTAGCT [XGTACX_site2544] | 6.04
6 | TATAATAATCCACAAGCACACACACCCACATATATA [CACACA_site8343] | 6.94
7 | AAATATTATTCATTTTGTACGTATAATTTTTAATGA [XGTACX_site3509] | 6.49
8 | TTATTACACAAATGGTGTACTTTTGAGGAACCAAAA [XGTACX_site4279] | 6.3
9 | ATTATATTATATTATACATGCATAATATTATATAAA [TGCATGCA_site647] | 6.24
10 | AAATTAAATGTAAGCACACATAAATTATACGCATAT [CACACA_site3335] | 6.48
11 | ACATTGAATAAATAATGTACATATATAATATATATT [XGTACX_site95] | 6.55
12 | TTGCAGTATTTCGGAACACACAAACATAAATATGTA [CACACA_site5307] | 6.26
13 | GTTTATTAGGAATTATGTACACAGTTTTATAAAGAA [XGTACX_site2994] | 6.79
14 | AATATAATATATTGCACACAAAAAGTGAATTATTCT [CACACA_site1684] | 10.7
15 | AAATAGTTGTTATGGGTGCAAACCACATATATATAA [GTGCAC_site9428] | 8.79
16 | AATATATACATACATACATGCACATATATATATATA [TGCATGCA_site393] | 9.61
17 | ATTATTTACCACAACACACAAATATTTACCAATCAT [CACACA_site5472] | 6.78
18 | ATTTGTTTAAGTCACGAACACACATATATCATCAAT [CACACA_site985] | 6.53
19 | AGGCCTTTTAGTATTTCACACACGTAAATGTGTATA [CACACA_site8284] | 6.43

Row | Sequence | gcPBM binding intensity (ln)
20 | CTTTGTGGTATAGATACACACTATATTAATATGAAC [CACACA_site7081] | 6.79
21 | AAATAAAAAGGGTGCACACAAAAATATATATATATA [CACACA_site1728] | 10.4
22 | TAAAAAAGAACAGAAACACACAAATAAAATAAAATT [CACACA_site1758] | 6.67
23 | CAAAATTGAAGGAACACACATACATATATATATATG [CACACA_site179] | 6.74
24 | ATTTTAAATATTTGTGGTACCCCTTTTTTGTAACAA [XGTACX_site5590] | 6.71
25 | CACATTATGTATCATACACACAAATAAATATAGAAT [CACACA_site609] | 6.96
26 | TATTCTAATATATGCATACACACAAATGTGAATATA [CACACA_site2143] | 6.76
27 | TTTATATGTATTAAGTGTACACATATAATGTGTTTT [XGTACX_site4890] | 6.52
28 | AAAACTATAATAAAAGGTACACATTTATTTTTTTCT [XGTACX_site730] | 6.09
29 | TATTATTTACCTTGCTAGTTCGTTCCAAATTTTATG [XGTACX_negctrl_site197] | 7.19
30 | TTTTTTTTTTTTTTTACACACACAAAATATTATATG [CACACA_site2471] | 6.57
31 | ATGTTTGATGCTACACGTACACACCTTGCAAATATT [XGTACX_site1644] | 7.72
32 | TATATTATTCATTAAGCACACATTATTTTTATAATA [CACACA_site6056] | 6.36
33 | AAAACAAATTTTAATGAGAATATGAAAAAAAAATAT [XGTACX_negctrl_site268] | 6.74
34 | TATATATATAAATACACACACACCCTAAAAATATAT [CACACA_site4970] | 7.35
35 | TTAACATCAAAATATGCACACAAACAATTAGCGGTA [CACACA_site8801] | 9.76
36 | ATATTATGTCTACATAAACACACATATATATAAAAA [CACACA_site7976] | 6.71
37 | AATAGTTATAAATATAAATATATATATATATATATA [CACACA_negctrl_site414] | 9.34
38 | TTACCATAAGTATGTGGTACACTTTAAATGAAGATA [XGTACX_site6972] | 6.28

Row | Sequence | gcPBM binding intensity (ln)
39 | AATAAATATTCATTTTGTACATATTTTTCGTATATG [XGTACX_site6104] | 6.24
40 | ATAATATTTTTAAACTGTACTTTTATAAACACTTAT [XGTACX_site2625] | 6.46
41 | GTATAACAACTGATAAAAGAAAAAAAATTTATTATT [CACACA_negctrl_site377] | 6.25
42 | ATTTATTTATGTATTTGTACGTATATATTTATGCAT [XGTACX_site5218] | 6.17
43 | TTTTTTTCGTATATTACACACTATAAATAGAAATTA [CACACA_site6278] | 6.68
44 | TCATATTTTACATATGCATGTTAATAATACAAACAT [TGCATGCA_site994] | 6.27
45 | TTTTTGAATGTTTGCACACAAATCTCATAATTTTAG [CACACA_site357] | 10.4
46 | TAGTTACATAAAATATGTACGTATAATTTTTTTATT [XGTACX_site3847] | 6.1
47 | ATAATTTATATCATTACACACATTTTTTATATTTTT [CACACA_site3450] | 6.57
48 | TATTTCACAAACCTTACATGCGGTTTATTTATATAT [TGCATGCA_site123] | 6.59
49 | TTTATTAAATATATATGTACATATCAAAATGTATAA [XGTACX_site3181] | 6.61
50 | TTTTTTTTCTATTGAGCACACATATCACGATTAGTA [CACACA_site7992] | 7.02
51 | GTTAAACATCTTCTGTGATATGTTAGAATATTATTT [CACACA_negctrl_site687] | 6.06
52 | TTAATTTATGTTAATGGTACGTAAATGCATTTATTT [XGTACX_site3002] | 6.48
53 | ATTTAACCAAATAATATATTTAAAAAATAGTCACAT [CACACA_negctrl_site274] | 6.26
54 | TTTTATAATTTGAGAACATGCAACATAAATATAAAG [TGCATGCA_site965] | 6.94
55 | TATAATATATGAAAAAGTACAAATATTTCGATGGTC [XGTACX_site129] | 6.59
56 | TGTTCTAATATTTGTTGTACGTTTACGTTTCTCTCT [XGTACX_site18] | 6.56
